Measurements taken from the supplement of paper PMC3334620.
The full ranking holds about 33,000 sequences; the median of “E-score (-0.5 to 0.5)” is about -0.016, and the highest 2% start at about 0.31. This is one part of the list.

target: Cst6 (UniProt P40535); assay: PBM E-score (8-mer binding enrichment) (E-score (-0.5 to 0.5)); higher = stronger / more preferred TF binding; most listed sequences are background and not binding sites; conditions: protein concentration: 200 nM; construct: GST-DNA-binding domain
How it was run: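 For each ungapped eight-base word taken together with its reverse complement, the Universal PBM Analysis Suite assigned an E-score. Binding data came from GST-tagged yeast transcription factors, applied at about 100-200 nM, on universal all-10-mer Agilent arrays made double-stranded by primer extension. Fluorescent anti-GST marked bound protein, and scans were normalised with masliner.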

Sequence | PBM E-score
AACCGACA | 0.037
CAATTTGG | -0.0563
GCTTGTCA | 0.0869
CTCCCACA | -0.289
CACGTATG | 0.204
CGGAATCA | 0.128
GGCCTTCA | -0.116
AAATGGAG | 0.0979
ACCACCCT | -0.223
ATCGGCAC | 0.109
CTATGGGC | -0.186
CCCCGCGC | -0.148
GCCCGGGA | -0.25
AACACTTC | 0.154
ACCGGACA | -0.303
CGGCTAGA | -0.038
CAAAGCCC | -0.188
AGGAGTTG | -0.0273
ACGTGGAC | 0.0951
AAGCATAT | 0.182
AACCTTCA | -0.0423
ATAAATTC | 0.145
AACAAGGT | 0.0571
AAGTCTAC | -0.2

Sequence | PBM E-score
CCGCACTC | 0.0452
CGCATATC | 0.0984
CAGGCTAC | -0.249
CTGGTCAC | -0.123
GCCCCAGA | -0.275
CCACACCC | -0.16
CATGATCG | 0.0636
TACTCCCA | -0.0234
CATAACTC | -0.118
CAGGCAAC | -0.0835
AGCCTACC | -0.25
CGTGTCGA | 0.137
GCAATAAA | 0.243
AATATACG | -0.0439
AAATCCTC | -0.122
ATAACTCC | -0.175
TCGTTGAA | 0.237
AAGGTACA | -0.0996
AAAAGTCA | 0.125
CGCTAAAG | 0.0348
ACTTGTGC | -0.176
CAAAGAGA | -0.111
AGATATGC | 0.0319
AAGCGTCC | -0.0893

Sequence | PBM E-score
CAGCAGAG | -0.311
GCTGGCCC | -0.314
CTTTACAC | 0.16
GCGCTGAC | 0.176
CTGCACCC | -0.306
ATGACGGC | 0.365
CGAGGAAA | -0.0408
CTATTTTC | 0.0777
ATGGTCAA | 0.183
CGCAGACA | 0.0456
CATAGTGA | 0.0205
CATCCCAG | -0.174
ATATTCCA | 0.18
CATATACA | 0.181
CTAGGTAC | -0.114
GGATGCCC | -0.274
ACCGAGCT | -0.126
GTACAGCA | -0.098
ATACACAT | 0.166
ACAGATAC | 0.169
AGGTTTTC | 0.131
AGCCTAGG | -0.333
AATTCGGT | 0.201
ACCTTAAA | -0.144

Sequence | PBM E-score
GGCATCAC | 0.227
GGTATCAC | -0.131
ACTTAATC | -0.0224
ACGATTGC | 0.241
GTCACCTA | 0.289
GTCAGTCA | 0.0935
CTGTATAC | -0.00687
CGTCCCCA | -0.229
GGATTTGA | -0.0111
CTCTGCAC | -0.161
AAAGCACT | -0.0296
AATACGCC | 0.104
CCGCTATC | -0.0787
AAAGCGAC | -0.114
ATAAAAAG | 0.307
GGGAATAA | 0.0818
CCATCGCC | -0.209
CACGGTGC | -0.0177
ACGGGGGA | -0.113
ACGACCCG | -0.172
CCTATACA | 0.0777
CATTATCG | 0.0831
